# The campaign covered roughly 48,000 compounds. About 120 (0.25%) were called active. Inconclusive results (about 4%) are left out. Calls come from the whole dose curve; as a rule, active = well fitted activation curve with a large enough effect; inconclusive = small, poorly fitted or top-dose-only effect, or another doubt; inactive = no such curve, though single readings can be large or run the other way. Some of the results follow.
# Assay: Primary qHTS for Identification of Small Molecule Activators of Huntingtin-Antisense Promoter Activity; note: nearly all actives have a fitted effect of over 55% in size
# Conditions: HEK293 HTT-AS promoter firefly luciferase reporter, 24 h; series mostly up to 57.5 µM; activity change, positive = activation: at the top concentration
# In short: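 Firefly luciferase signal from promoter-reporter HEK293 cells was scaled between vehicle (0%) and zero RLU (-100%). Compounds were tested at final concentrations of up to 57.5 uM over 24 h at 37 degrees C. PTC124 at 50 uM final served as control inhibitor.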
row,SMILES,"activity change, positive = activation"
1,CCOc1ccc(NC(=O)c2cc3sc(Cl)cc3n2CC)cc1,inactive: 0.896%
2,CCCOc1ccccc1-c1nc(SCC(=O)c2ccccc2)n[nH]1,inactive: -24.8%
3,CCN1CCN(CCCNC(=O)c2ccc3nc(Cc4ccc(OC)cc4)oc3c2)CC1,inactive: 4.37%
4,CCOc1cc(CNS(=O)(=O)c2ccc3c(c2)CC(=O)N3C)cc(OCC)c1OCC,inactive: -9.62%
5,Cc1cc(C)n(C(C)CC(=O)NCc2ccccc2C)n1 (stereo unspecified),inactive: -4.49%
6,CCCCN(CCCC)c1ncnc2c1cnn2-c1cccc(C)c1,inactive: -17.6%
7,CC(=O)Nc1ccc(S(=O)(=O)N2CCC(c3ccncc3)CC2)cc1,inactive: 8.56%
8,COc1ccc(Br)cc1C(=O)Nc1ccc2oc(-c3cccnc3)nc2c1,inactive: 17.2%
9,COC(=O)c1c(NC(=O)c2cc(=O)c3c(C)cc(C)cc3o2)sc2c1CCCC2,inactive: -3.95%
10,Cc1cccc(NC(=O)CN(c2ccc(C(C)C)cc2)S(=O)(=O)c2c(C)nn(C)c2C)c1C,inactive: -35.4%
11,CCOC(=O)C1CCN(S(=O)(=O)c2cc(-c3onc(C)c3C)ccc2C)CC1,inactive: -35.6%
12,Cc1ccc(-n2ncc3c(N4CCN(c5ccccc5)CC4)ncnc32)cc1C,inactive: 0%
13,CC(=O)N1CCCc2cc(S(=O)(=O)N3CCC(C(=O)N(Cc4ccccc4)C(C)C)CC3)ccc21,inactive: -22.6%
14,COCCn1c(C)cc(O)c(C(c2ccccc2)N2CCC(C)CC2)c1=O (stereo unspecified),inactive: 0.99%
15,OC[C@@H](O)[C@@H](O[C@@H]1O[C@H](CO)[C@H](O)[C@H](O)[C@H]1O)[C@H](O)[C@@H](O)CO,inactive: -2.98%
16,COc1ccc(N2C(=O)CSC23C(=O)N(C)c2ccccc23)cc1Cl (stereo unspecified),inactive: -20%
17,CCc1ccccc1Nc1cc(C(=O)NCc2ccc(C)cc2)c2ccccc2n1,inactive: -18.3%
18,CCOC(=O)N1CCN(C(=O)c2ccc3c(c2)N(Cc2ccccc2F)C(=O)c2ccccc2S3=O)CC1 (stereo unspecified),inactive: -11.6%
19,O=C(c1c2c(nc3ccccc13)C(=O)N(C1CCCCC1)C2)N1CCN(c2ccc(F)cc2)CC1,inactive: -7.23%
20,Cc1cc(C)cc(Nc2ncnc3c2nc2n3CCCC2)c1,inactive: -20.3%
21,COc1ccc(N2CC(NC(=O)COc3ccccc3F)CC2=O)cc1OC (stereo unspecified),inactive: -13.4%

row,SMILES,"activity change, positive = activation"
1,CC(C)CCNC(=O)CN1C(=O)CCn2nc(-c3cn(C)c4ccccc34)cc21,inactive: 0.499%
2,COc1ccc(C)c2sc(NC(=O)c3ccc(S(=O)(=O)N4CCCCC4)cc3)nc12,inactive: -15.5%
3,CCOc1ccc(NC(=O)CSc2oc(-c3ccco3)nc2S(=O)(=O)c2ccc(C)cc2)cc1,inactive: -24.5%
4,CCCN1CCN(CCCNC(=O)c2cc3c(Cl)nc4ccccc4c3s2)CC1,inactive: -24.2%
5,CCCOc1ccc(/C=C/C(=O)Nc2sc(C)c(C)c2C(=O)OCC)cc1OC,inactive: -13.2%
6,Cc1nc(S(=O)(=O)N2CCN(c3ccc(Cl)cc3)CC2)cn1C,inactive: -15.8%
7,Cc1nnc(SCc2cc(=O)c3ccccc3[nH]2)s1,inactive: -16.4%
8,CCOc1ccc(S(=O)(=O)NCCc2csc(-c3ccc(Cl)cc3)n2)cc1,inactive: -42.8%
9,CCOc1ccc(CCNC(=O)c2ccc(-c3nc(CSc4ccc(C)cc4)c(C)o3)cc2)cc1,inactive: -35%
10,COc1ccc(OCc2ccc(-c3nc(C#N)c(N4CCN(C)CC4)o3)o2)cc1,inactive: -28.2%
11,CCC1CN(C(=O)NCc2cccc(OC)c2)c2cc(Cl)ccc2O1 (stereo unspecified),inactive: -30.8%
12,Cc1ccccc1C(=O)c1cccn1CC(=O)NCc1ccc(Cl)cc1,inactive: -5.76%
13,COc1ccccc1CNC(=O)Cc1c(C)c2c(cc(C)c3c(C)c(C)oc32)oc1=O,inactive: -0.988%
14,Cc1ccc2c(CN3CCN(Cc4ccccc4Cl)CC3)cc(=O)oc2c1,inactive: -12.7%
15,COc1ccc(CCNC(=O)CCCn2c(=O)c3cccn3c3cccnc32)cc1OC,inactive: 1.54%
16,CCCCC1CCC(C(=O)N2CC(=O)Nc3ccc(F)cc3C2c2ccc(F)cc2)CC1 (stereo unspecified),inactive: -16.8%
17,COc1ccc(C2CC(=O)Nc3c2c(=O)nc2c(C)cccn32)cc1OC (stereo unspecified),inactive: -6.51%
18,COc1ccc(NC(=O)c2ccc(CN3C(=O)CCn4nc(C)cc43)cc2)c(OC)c1,inactive: -7.68%
19,CCN(CC)c1nn2c(=O)c(C(=O)NCCc3ccc(C)cc3)cnc2s1,inactive: -13.8%
20,CCn1c2ccccc2c2nnc(N3CCN(c4ccc(F)cc4)CC3)nc21,inactive: -6.67%
21,CCOC(=O)c1c(NC(=O)COc2cccc(C(F)(F)F)c2)sc2c1CCC(C)C2 (stereo unspecified),"inactive: 2.61% [at 11.5 µM, percent change from vehicle, -100% = no light]"

row,SMILES,"activity change, positive = activation"
1,CCOC(=O)c1cc2c(=O)n3ccccc3nc2n(CC2CCCO2)c1=NC(=O)c1ccc(C(C)(C)C)cc1 (stereo unspecified),inactive: -22.4%
2,Cc1nc2sc(C(=O)N(C)Cc3ccccc3)c(NC(=O)c3ccccc3)c2c(C)c1Cl,inactive: 4.38%
3,CCOc1ccc(CNC(=O)c2ccc(Sc3ccc(Cl)cc3)c(NC(C)=O)c2)cc1,inactive: -45.8%
4,COc1ccc(NC(=O)CSc2cn(CC(=O)N3CCCCC3)c3ccccc23)c(OC)c1,inactive: -21.4%
5,CCCC(=O)Nc1ccc2c(c1)nc(CN1CCN(C(=O)OCC)CC1)n2C(C)C,inactive: -41.7%
6,CC1CCN(C(=O)c2ccc3c(c2)N(Cc2ccccc2F)C(=O)c2ccccc2S3(=O)=O)CC1,inactive: -24.1%
7,Cc1ccc(NC(=O)C(=O)NCC(c2cccnc2)N2CCOCC2)cc1 (stereo unspecified),inactive: -6.98%
8,Cc1c(Cl)cccc1-n1ncc(C(=O)N2CCN(C)CC2)c1C1CCN(C(=O)OC(C)(C)C)CC1,inactive: -1.04%
9,COc1ccc(S(=O)(=O)n2nc(C)c(S(=O)(=O)N3CCCCC3)c2C)cc1,inactive: -5.22%
10,COc1ccccc1N1CCN(C(=O)c2cc3c(=O)n(C)c4ccccc4c3s2)CC1,inactive: -7.54%
11,COc1ccc(-c2nc(SCC(=O)NC3CCCC3)c(-c3ccc(OC)cc3)[nH]2)cc1,inactive: -25.6%
12,COc1ccc(CNC(=O)Cn2nc(C)n3cccc3c2=O)cc1,inactive: -5.24%
13,CCc1cccc2c(CCO)c[nH]c12,inactive: 7.75%
14,CC(C)Cn1c(=O)c2ccccc2n2c(CCC(=O)N3CCN(c4cccc(Cl)c4)CC3)nnc12,inactive: -2.99%
15,CC(=O)c1ccc(N2CCN(c3ncnc4c3c(-c3ccccc3)cn4-c3ccc(C)c(Cl)c3)CC2)cc1,inactive: -3.6%
16,COCCCN(Cc1ccco1)C(=O)c1cc2c(s1)-c1ccccc1OC2,inactive: -21%
17,O=C(COc1ccccc1)Nc1sc2c(c1C(=O)Nc1ccccc1Cl)CCCCC2,inactive: -11.6%
18,CCN(Cc1nc(-c2cccc(C)c2)no1)S(=O)(=O)c1ccc(C)cc1,inactive: -27.2%
19,Cc1cccc(C)c1NC(=O)CN1C(=O)CCSc2ccc(S(=O)(=O)N3CCCC3)cc21,inactive: -8.38%

# From PubChem BioAssay AID1508624 (National Center for Advancing Translational Sciences (NCATS), 2021)
